T1: CD86Ig (UniProt P42081 24-247, limits assumed)
T1 construct: Immobilized on BIAcore chips; also called soluble CD86Ig; not shown: Immunoglobulin portion
T1 sequence (looked up): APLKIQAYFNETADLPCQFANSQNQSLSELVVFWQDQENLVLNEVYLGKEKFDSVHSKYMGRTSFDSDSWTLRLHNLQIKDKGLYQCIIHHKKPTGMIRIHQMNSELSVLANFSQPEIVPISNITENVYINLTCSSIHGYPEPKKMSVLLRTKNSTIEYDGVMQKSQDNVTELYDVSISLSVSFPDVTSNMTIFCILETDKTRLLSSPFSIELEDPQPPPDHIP

B1: L104EA29LIg (Fc fusion)
chain: MHVAQPAVVLASSRGIASFVCEYASPGKLTEVRVTVLRQADSQVTEVCAATYMMGNELTFLDDSICTGTSSGNQVNLTIQGLRAMDTGLYICKVELMYPPPYYEGIGNGTQIYVIDPEPCPDSDQ[gap - human IgG1 Fc with changes]
notes: Tested as COS cell culture medium in the SPR off-rate screen
B2: L104EA29TIg (Fc fusion)
chain: MHVAQPAVVLASSRGIASFVCEYASPGKTTEVRVTVLRQADSQVTEVCAATYMMGNELTFLDDSICTGTSSGNQVNLTIQGLRAMDTGLYICKVELMYPPPYYEGIGNGTQIYVIDPEPCPDSDQ[gap - human IgG1 Fc with changes]
notes: as for B1
B3: L104EA29WIg (Fc fusion)
chain: MHVAQPAVVLASSRGIASFVCEYASPGKWTEVRVTVLRQADSQVTEVCAATYMMGNELTFLDDSICTGTSSGNQVNLTIQGLRAMDTGLYICKVELMYPPPYYEGIGNGTQIYVIDPEPCPDSDQ[gap - human IgG1 Fc with changes]
notes: as for B1

Biological target: T1, CD86Ig
Test: SPR screen of COS culture media over immobilized CD86Ig

Row | Binder | fold slower 'off' rate than wild type CTLA4Ig [fold]
1 | B1 | ~4
2 | B2 | ~4
3 | B3 | ~4
